The list shows a part of the results. The list includes weakly bound sequences.

The assay deals with T1, MBP-FoxP3dN (UniProt Q99JB6).
T1 sequence: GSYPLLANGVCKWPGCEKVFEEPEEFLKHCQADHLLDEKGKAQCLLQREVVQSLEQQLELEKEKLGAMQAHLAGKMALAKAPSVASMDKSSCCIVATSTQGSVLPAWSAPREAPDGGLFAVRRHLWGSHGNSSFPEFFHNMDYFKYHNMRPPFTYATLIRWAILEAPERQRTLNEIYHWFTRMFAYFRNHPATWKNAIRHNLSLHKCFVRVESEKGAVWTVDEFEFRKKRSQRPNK
In words: PD-seq (MBP pull-down with sequencing). Particulars: 20 mM Tris-HCl pH 7.5, 100 mM NaCl, 1.5 mM MgCl2, 0.4 uM protein, 0.1 uM dsDNA library, 30 min, room temperature, amylose pull-down; high values mean tight binding; double strand, one strand shown.
On to “GATGATTGTTCTCCCAGCTGATGAATTGGAGGGATCGAGTAAACAAATTTTCCTAATCTTTCTGTTCAAGCGCCATCTAC”, for which the binding signal (RPM ratio (pull-down/input)) was found to be 0.208.

For the sequence “GATGATTGTTCTCCCAGCTGATGAATTCGCCCACTCGAGTAAACAAATTTTCCTAATCTTTCTGTTCAAGCGCCATCTAC”, the binding signal (RPM ratio (pull-down/input)) came out at 0.406. The value for “GATGATTGTTCTCCCAGCTGATGAATTCTGTCGATCGAGTAAACAAATTTTCCTAATCTTTCTGTTCAAGCGCCATCTAC” was 0.612; that for “GATGATTGTTCTCCCAGCTGATGAATTAGGAGGTTCGAGTAAACAAATTTTCCTAATCTTTCTGTTCAAGCGCCATCTAC” was 0.35; that for “GATGATTGTTCTCCCAGCTGATGAATTACTATGATCGAGTAAACAAATTTTCCTAATCTTTCTGTTCAAGCGCCATCTAC” was 0.43. Take “GATGATTGTTCTCCCAGCTGATGAATTGGCACCTTCGAGTAAACAAATTTTCCTAATCTTTCTGTTCAAGCGCCATCTAC”: the binding signal (RPM ratio (pull-down/input)) is 0.387.

On to “GATGATTGTTCTCCCAGCTGATGAATTCGTCAATTCGAGTAAACAAATTTTCCTAATCTTTCTGTTCAAGCGCCATCTAC”, for which the binding signal (RPM ratio (pull-down/input)) was found to be 0.469. The value for “GATGATTGTTCTCCCAGCTGATGAATTTGTGGTTTCGAGTAAACAAATTTTCCTAATCTTTCTGTTCAAGCGCCATCTAC” was 5.11; that for “GATGATTGTTCTCCCAGCTGATGAATTCCACGTCTCGAGTAAACAAATTTTCCTAATCTTTCTGTTCAAGCGCCATCTAC” was 0.386. Turning to “GATGATTGTTCTCCCAGCTGATGAATTTCTGTGCTCGAGTAAACAAATTTTCCTAATCTTTCTGTTCAAGCGCCATCTAC”, the binding signal (RPM ratio (pull-down/input)) amounted to 0.339. The value for “GATGATTGTTCTCCCAGCTGATGAATTCCTATCTTCGAGTAAACAAATTTTCCTAATCTTTCTGTTCAAGCGCCATCTAC” was 0.331. The value for “GATGATTGTTCTCCCAGCTGATGAATTCTGAAGCTCGAGTAAACAAATTTTCCTAATCTTTCTGTTCAAGCGCCATCTAC” was 0.281; that for “GATGATTGTTCTCCCAGCTGATGAATTTGGCACATCGAGTAAACAAATTTTCCTAATCTTTCTGTTCAAGCGCCATCTAC” was 0.97; that for “GATGATTGTTCTCCCAGCTGATGAATTACGTATCTCGAGTAAACAAATTTTCCTAATCTTTCTGTTCAAGCGCCATCTAC” was 3.75. The value for “GATGATTGTTCTCCCAGCTGATGAATTCAACGGATCGAGTAAACAAATTTTCCTAATCTTTCTGTTCAAGCGCCATCTAC” was 0.237; that for “GATGATTGTTCTCCCAGCTGATGAATTAGGTCTGTCGAGTAAACAAATTTTCCTAATCTTTCTGTTCAAGCGCCATCTAC” was 0.395; that for “GATGATTGTTCTCCCAGCTGATGAATTGTCTAGGTCGAGTAAACAAATTTTCCTAATCTTTCTGTTCAAGCGCCATCTAC” was 0.364. With “GATGATTGTTCTCCCAGCTGATGAATTCCTCCTGTCGAGTAAACAAATTTTCCTAATCTTTCTGTTCAAGCGCCATCTAC”, the binding signal (RPM ratio (pull-down/input)) was 0.198.

(Values after PMC12820563.)
